Measured values: PMC7284315
These are yes or no findings as the source states them, for the method shown. Binding seen in cells or lysates may run through a third protein. Some entries that bind do so weakly or less than the wild type. For some of these results: Where a sequence is shown, tags or fusion partners need not be part of it.

Amino acid sequences for entries named in this document (tags omitted). A change or cut given only in a name is not applied to a line headed by its entry.
UniProt O43639: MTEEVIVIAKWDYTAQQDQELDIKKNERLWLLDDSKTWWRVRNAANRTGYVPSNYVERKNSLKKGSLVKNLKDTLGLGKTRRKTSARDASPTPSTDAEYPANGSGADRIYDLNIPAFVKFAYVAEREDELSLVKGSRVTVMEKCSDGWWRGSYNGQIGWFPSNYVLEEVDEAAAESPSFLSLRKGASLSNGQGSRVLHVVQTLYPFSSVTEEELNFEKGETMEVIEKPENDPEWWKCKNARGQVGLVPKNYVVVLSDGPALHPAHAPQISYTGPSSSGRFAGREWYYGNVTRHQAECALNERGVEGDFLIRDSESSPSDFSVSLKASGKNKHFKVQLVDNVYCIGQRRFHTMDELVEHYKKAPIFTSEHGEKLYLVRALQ
UniProt P49674: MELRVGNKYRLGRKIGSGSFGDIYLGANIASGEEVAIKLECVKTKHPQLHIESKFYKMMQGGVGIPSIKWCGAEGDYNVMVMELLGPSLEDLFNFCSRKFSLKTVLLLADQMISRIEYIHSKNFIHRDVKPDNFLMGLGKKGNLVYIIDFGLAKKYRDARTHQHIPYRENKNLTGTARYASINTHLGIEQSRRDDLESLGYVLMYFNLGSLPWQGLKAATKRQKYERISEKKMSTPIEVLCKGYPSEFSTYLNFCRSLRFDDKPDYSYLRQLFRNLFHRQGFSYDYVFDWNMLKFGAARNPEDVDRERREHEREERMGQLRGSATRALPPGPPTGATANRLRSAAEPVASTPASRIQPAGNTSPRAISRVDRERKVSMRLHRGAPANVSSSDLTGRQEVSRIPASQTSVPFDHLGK
UniProt P48730: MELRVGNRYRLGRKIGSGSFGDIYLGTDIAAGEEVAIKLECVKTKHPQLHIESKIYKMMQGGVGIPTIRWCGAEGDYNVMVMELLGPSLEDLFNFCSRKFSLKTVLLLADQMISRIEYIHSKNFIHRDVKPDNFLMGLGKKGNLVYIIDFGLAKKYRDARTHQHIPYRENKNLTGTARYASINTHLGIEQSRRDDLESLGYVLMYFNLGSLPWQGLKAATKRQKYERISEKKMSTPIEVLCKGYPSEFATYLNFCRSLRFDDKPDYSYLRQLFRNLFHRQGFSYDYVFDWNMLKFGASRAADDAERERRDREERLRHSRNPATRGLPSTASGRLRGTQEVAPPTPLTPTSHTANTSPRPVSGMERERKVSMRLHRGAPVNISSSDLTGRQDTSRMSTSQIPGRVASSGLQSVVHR
UniProt P48729: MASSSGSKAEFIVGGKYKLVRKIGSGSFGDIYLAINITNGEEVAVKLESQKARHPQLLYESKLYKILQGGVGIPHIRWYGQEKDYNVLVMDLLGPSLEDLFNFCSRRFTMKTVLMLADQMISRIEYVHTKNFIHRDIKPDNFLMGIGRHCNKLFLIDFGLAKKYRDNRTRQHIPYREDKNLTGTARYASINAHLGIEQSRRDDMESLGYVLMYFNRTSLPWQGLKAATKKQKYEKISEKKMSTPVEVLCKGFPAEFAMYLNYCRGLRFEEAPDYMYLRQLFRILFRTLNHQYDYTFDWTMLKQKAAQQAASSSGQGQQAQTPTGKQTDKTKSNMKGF

Columns and labels:
[1] = target: T1, GFP-FAM83H (transient, U2OS FAM83H-/-) (human) (UniProt Q6ZRV2); test: co-IP; anti-GFP pull-down from lysates of U2OS FAM83H-/- cells transiently transfected with GFP or GFP-FAM83H and mCherry-UNC45A; Western blot
T1 sequence: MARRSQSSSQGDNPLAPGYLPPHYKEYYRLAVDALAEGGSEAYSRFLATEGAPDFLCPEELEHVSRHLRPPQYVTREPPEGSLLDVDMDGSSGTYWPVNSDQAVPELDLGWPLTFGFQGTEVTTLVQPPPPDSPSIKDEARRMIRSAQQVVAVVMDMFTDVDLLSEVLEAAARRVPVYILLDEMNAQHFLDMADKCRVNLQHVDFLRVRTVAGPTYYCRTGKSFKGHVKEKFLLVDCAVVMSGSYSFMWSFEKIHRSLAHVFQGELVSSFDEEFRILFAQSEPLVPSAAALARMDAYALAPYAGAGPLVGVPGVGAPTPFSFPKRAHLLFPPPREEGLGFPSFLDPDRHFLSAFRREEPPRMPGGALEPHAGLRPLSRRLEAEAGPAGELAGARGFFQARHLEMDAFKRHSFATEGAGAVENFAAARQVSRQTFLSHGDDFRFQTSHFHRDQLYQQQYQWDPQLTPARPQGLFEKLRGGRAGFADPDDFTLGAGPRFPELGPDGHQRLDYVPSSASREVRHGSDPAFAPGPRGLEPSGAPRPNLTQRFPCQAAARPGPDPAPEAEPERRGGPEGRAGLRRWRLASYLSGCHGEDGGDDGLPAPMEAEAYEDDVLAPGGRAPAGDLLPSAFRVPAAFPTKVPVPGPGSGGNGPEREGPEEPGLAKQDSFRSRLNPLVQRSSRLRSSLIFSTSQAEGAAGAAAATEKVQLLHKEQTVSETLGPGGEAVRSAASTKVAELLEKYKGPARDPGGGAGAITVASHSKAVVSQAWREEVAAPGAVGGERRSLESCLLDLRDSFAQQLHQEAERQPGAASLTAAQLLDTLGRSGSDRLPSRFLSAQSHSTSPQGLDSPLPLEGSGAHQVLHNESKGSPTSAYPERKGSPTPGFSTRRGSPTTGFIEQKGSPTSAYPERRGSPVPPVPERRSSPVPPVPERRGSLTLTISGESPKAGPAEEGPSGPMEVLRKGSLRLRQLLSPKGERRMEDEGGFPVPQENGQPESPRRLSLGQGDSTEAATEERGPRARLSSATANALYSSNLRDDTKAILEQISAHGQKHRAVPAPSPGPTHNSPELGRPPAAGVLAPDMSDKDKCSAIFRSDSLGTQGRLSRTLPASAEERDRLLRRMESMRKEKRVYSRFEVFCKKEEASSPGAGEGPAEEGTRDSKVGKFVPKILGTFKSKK

FLAG-NCK2^W39K (SH3-1*) = FLAG-NCK2^W39K (SH3-1*) (UniProt O43639); test: co-IP; anti-FLAG IP of transiently expressed FLAG-NCK1 or FLAG-NCK2 constructs from U2OS Flp-In T-REx cells induced to express FAM83H-GFP; immunoblot
[2] = target: FLAG-NCK2^(W39K, W235K) (SH3-1/3*) (UniProt O43639); test: as above
[3] = target: FLAG-NCK2^(W39K, W149K) (SH3-1/2*) (UniProt O43639); test: as above
FLAG-NCK2^W149K (SH3-2*) = FLAG-NCK2^W149K (SH3-2*) (UniProt O43639); test: as above
FLAG-NCK2^R311M (SH2*) = FLAG-NCK2^R311M (SH2*) (UniProt O43639); test: as above
FLAG-NCK2^W235K (SH3-3*) = FLAG-NCK2^W235K (SH3-3*) (UniProt O43639); test: as above
[4] = target: mCherry-CK1ε (endogenous knock-in, U2OS CK1^mCherry/mCherry) (human (endogenous in U2OS)) (UniProt P49674); test: co-IP; mCherry IP from lysates of U2OS CK1^mCherry/mCherry knock-in cells; immunoblot of input, IP and flow through
[5] = target: mCherry-CK1δ (endogenous knock-in, U2OS CK1^mCherry/mCherry) (human (endogenous in U2OS)) (UniProt P48730); test: as above
[6] = target: mCherry-CK1α (endogenous knock-in, U2OS CK1^mCherry/mCherry) (human (endogenous in U2OS)) (UniProt P48729); test: as above

Measured: binding

B1: mCherry-UNC45A (protein, UniProt Q9H3U1 1-944)
chain: MTVSGPGTPEPRPATPGASSVEQLRKEGNELFKCGDYGGALAAYTQALGLDATPQDQAVLHRNRAACHLKLEDYDKAETEASKAIEKDGGDVKALYRRSQALEKLGRLDQAVLDLQRCVSLEPKNKVFQEALRNIGGQIQEKVRYMSSTDAKVEQMFQILLDPEEKGTEKKQKASQNLVVLAREDAGAEKIFRSNGVQLLQRLLDMGETDLMLAALRTLVGICSEHQSRTVATLSILGTRRVVSILGVESQAVSLAACHLLQVMFDALKEGVKKGFRGKEGAIIVDPARELKVLISNLLDLLTEVGVSGQGRDNALTLLIKAVPRKSLKDPNNSLTLWVIDQGLKKILEVGGSLQDPPGELAVTANSRMSASILLSKLFDDLKCDAERENFHRLCENYIKSWFEGQGLAGKLRAIQTVSCLLQGPCDAGNRALELSGVMESVIALCASEQEEEQLVAVEALIHAAGKAKRASFITANGVSLLKDLYKCSEKDSIRIRALVGLCKLGSAGGTDFSMKQFAEGSTLKLAKQCRKWLCNDQIDAGTRRWAVEGLAYLTFDADVKEEFVEDAAALKALFQLSRLEERSVLFAVASALVNCTNSYDYEEPDPKMVELAKYAKQHVPEQHPKDKPSFVRARVKKLLAAGVVSAMVCMVKTESPVLTSSCRELLSRVFLALVEEVEDRGTVVAQGGGRALIPLALEGTDVGQTKAAQALAKLTITSNPEMTFPGERIYEVVRPLVSLLHLNCSGLQNFEALMALTNLAGISERLRQKILKEKAVPMIEGYMFEEHEMIRRAATECMCNLAMSKEVQDLFEAQGNDRLKLLVLYSGEDDELLQRAAAGGLAMLTSMRPTLCSRIPQVTTHWLEILQALLLSSNQELQHRGAVVVLNMVEASREIASTLMESEMMEILSVLAKGDHSPVTRAAAACLDKAVEYGLIQPNQDGE
binds: [1]

B2: FAM83H-GFP (U2OS Flp-In T-REx, doxycycline-induced) (protein, UniProt Q6ZRV2 1-1179)
chain: T1 sequence
binds: FLAG-NCK2^W39K (SH3-1*) | [2] | [3] | FLAG-NCK2^W149K (SH3-2*) | FLAG-NCK2^R311M (SH2*) | FLAG-NCK2^W235K (SH3-3*)

B3: FAM83H, endogenous (U2OS) (protein, UniProt Q6ZRV2 1-1179)
chain: T1 sequence
binds: [4] | [5] | [6]
